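Compound exposure: 48 hours, 5 concentrations, 96-well plates. GI50 marks 50% less growth. TGI: concentration producing complete growth inhibition.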
test system: NCI-H322M lung; test: NCI-60 cell line screen, 48 h

SMILES	TGI [µM]	GI50 [µM]
COc1cc(/C=C2/SC(c3ccccc3)N(c3ccccc3)C2=O)cc(OC)c1OC (stereo not drawn)	> 100	–
O=C1c2ccccc2NC1(c1ccccc1)c1c(-c2ccccc2)[nH]c2ccccc12 (stereo not drawn)	> 100	–
COc1ccc(Cc2cc3c(cc2OCC(=O)O)OCO3)cc1	> 100	–
CN(C)C/C=C/C(=O)Nc1cc2c(Nc3ccc(F)c(Cl)c3F)ncnc2cc1OCCOC(F)F	2.09	< 0.01
[N-]=[N+]=Nc1c(C=O)c(=O)n(-c2ccccc2)c2ccccc12	> 100	–
CCn1cc(-c2ccnc3[nH]ccc23)c(-c2cccc(NC(=O)Nc3ccc(OCc4ccccc4)cc3)c2)n1	> 25	> 15.7

— PubChem BioAssay (NCI)
